Earlier results on one molecule are cited in patent US12097202B2 (Kadmon Corporation, LLC, priority 2022, dated 2024).

The subject of the data set is patients with cGVHD. To be noted: in vivo; cited from earlier work.

Consider `C=CC(=O)N1CCC[C@@H](n2nc(-c3ccc(Oc4ccccc4)cc3)c3c(N)ncnc32)C1` [ibrutinib], for which the “discontinuation rate because of treatment-emergent adverse events (TEAEs)” value was 43%.
